# Results as given in the supplement of paper PMC8728848.
# Some of the results follow.
# Tests used:
# Assay in all cases: glycan array binding signal (z-score within array); higher = stronger binding
# Settings in all cases: glycan notation: IUPAC condensed, linker removed
# [1] = molecular target: GalNAc(a1-3)GalNAc(b1-3)Gal(a1-4)Gal(b1-4)GlcNAc
# Outline: (§1)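 Negative Z-scores can be read as non-binding. The Z-score is calculated within each array and then averaged across arrays of one protein sequence at different concentrations or buffers and across linkers. Arrays, 3228 in all, were curated from the Consortium for Functional Glycomics database and kept only where the protein sequence was available.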
# GalNAc(b1-3)Gal = molecular target: GalNAc(b1-3)Gal
# Outline: as §1
# [2] = molecular target: GalNAc(b1-3)Gal(a1-4)Gal(b1-4)GlcNAc
# Outline: as §1
# [3] = molecular target: GalNAc(b1-3)Gal(a1-4)Gal(b1-4)GlcNAc(b1-3)Gal(b1-4)Glc
# Outline: as §1
# [4] = molecular target: GalNAc(b1-3)Gal(a1-6)Gal(b1-4)Glc
# Outline: as §1
# GalNAc(b1-3)GalNAc = molecular target: GalNAc(b1-3)GalNAc
# Outline: as §1
# GalNAc(b1-4)Gal(b1-4)Glc = molecular target: GalNAc(b1-4)Gal(b1-4)Glc
# Outline: as §1
# GalNAc(b1-4)GlcNAc = molecular target: GalNAc(b1-4)GlcNAc
# Outline: as §1
# [5] = molecular target: GalNAc(b1-4)GlcNAc(b1-2)Man(a1-3)[GalNAc(b1-4)GlcNAc(b1-2)Man(a1-6)]Man(b1-4)GlcNAc(b1-4)GlcNAc
# Outline: as §1
# GalNAc(b1-4)GlcNAc6S = molecular target: GalNAc(b1-4)GlcNAc6S
# Outline: as §1
# GalNAc(b1-6)GalNAc = molecular target: GalNAc(b1-6)GalNAc
# Outline: as §1
# GalNAc3S(b1-4)GlcNAc = molecular target: GalNAc3S(b1-4)GlcNAc
# Outline: as §1
# GalNAc3S(b1-4)GlcNAc3S = molecular target: GalNAc3S(b1-4)GlcNAc3S
# Outline: as §1
# GalNAc4S6S(b1-4)GlcNAc = molecular target: GalNAc4S6S(b1-4)GlcNAc
# Outline: as §1
# GalNAc6S(b1-4)GlcNAc = molecular target: GalNAc6S(b1-4)GlcNAc
# Outline: as §1
# Glc(a1-4)Glc = molecular target: Glc(a1-4)Glc
# Outline: as §1
# [6] = molecular target: Glc(a1-4)Glc(a1-4)Glc(a1-4)Glc
# Outline: as §1
# Glc(a1-6)Glc(a1-6)Glc = molecular target: Glc(a1-6)Glc(a1-6)Glc
# Outline: as §1
# [7] = molecular target: Glc(a1-6)Glc(a1-6)Glc(a1-6)Glc
# Outline: as §1
# Glc(b1-4)Glc = molecular target: Glc(b1-4)Glc
# Outline: as §1
# Glc(b1-6)Glc = molecular target: Glc(b1-6)Glc
# Outline: as §1
# GlcA(b1-3)Gal = molecular target: GlcA(b1-3)Gal
# Outline: as §1
# GlcA(b1-3)GlcNAc = molecular target: GlcA(b1-3)GlcNAc
# Outline: as §1
# GlcA(b1-6)Gal = molecular target: GlcA(b1-6)Gal
# Outline: as §1
# [8] = molecular target: GlcNAc(a1-3)Gal(b1-4)GlcNAc
# Outline: as §1
# [9] = molecular target: GlcNAc(a1-4)Gal(b1-3)GlcNAc
# Outline: as §1
# [10] = molecular target: GlcNAc(a1-4)Gal(b1-4)GalNAc
# Outline: as §1
# [11] = molecular target: GlcNAc(a1-4)Gal(b1-4)GlcNAc
# Outline: as §1
# [12] = molecular target: GlcNAc(a1-4)Gal(b1-4)GlcNAc(b1-3)Gal(b1-4)Glc
# Outline: as §1
# [13] = molecular target: GlcNAc(a1-4)Gal(b1-4)GlcNAc(b1-3)Gal(b1-4)GlcNAc
# Outline: as §1
# [14] = molecular target: GlcNAc(a1-4)Gal(b1-4)GlcNAc(b1-3)Gal(b1-4)GlcNAc(b1-3)Gal(b1-4)GlcNAc
# Outline: as §1
# [15] = molecular target: GlcNAc(a1-4)Gal(b1-4)GlcNAc(b1-3)Gal(b1-4)[Fuc(a1-3)]GlcNAc(b1-3)Gal(b1-4)[Fuc(a1-3)]GlcNAc
# Outline: as §1
# [16] = molecular target: GlcNAc(a1-6)Gal(b1-4)GlcNAc
# Outline: as §1
# [17] = molecular target: GlcNAc(b1-2)Gal(b1-3)GalNAc
# Outline: as §1
# [18] = molecular target: GlcNAc(b1-2)Man(a1-3)[GlcNAc(b1-2)Man(a1-6)]Man(b1-4)GlcNAc(b1-4)GlcNAc
# Outline: as §1
# [19] = molecular target: GlcNAc(b1-2)Man(a1-3)[GlcNAc(b1-2)Man(a1-6)]Man(b1-4)GlcNAc(b1-4)[Fuc(a1-6)]GlcNAc
# Outline: as §1
# [20] = molecular target: GlcNAc(b1-2)Man(a1-3)[GlcNAc(b1-4)][GlcNAc(b1-2)Man(a1-6)]Man(b1-4)GlcNAc(b1-4)GlcNAc
# Outline: as §1
# [21] = molecular target: GlcNAc(b1-2)[GlcNAc(b1-4)]Man(a1-3)[GlcNAc(b1-2)Man(a1-6)]Man(b1-4)GlcNAc(b1-4)GlcNAc
# Outline: as §1
# [22] = molecular target: GlcNAc(b1-2)[GlcNAc(b1-4)]Man(a1-3)[GlcNAc(b1-4)][GlcNAc(b1-2)Man(a1-6)]Man(b1-4)GlcNAc(b1-4)GlcNAc
# Outline: as §1
# [23] = molecular target: GlcNAc(b1-2)[GlcNAc(b1-4)]Man(a1-3)[GlcNAc(b1-4)][GlcNAc(b1-2)[GlcNAc(b1-6)]Man(a1-6)]Man(b1-4)GlcNAc(b1-4)GlcNAc
# Outline: as §1
# [24] = molecular target: GlcNAc(b1-2)[GlcNAc(b1-4)]Man(a1-3)[GlcNAc(b1-4)][GlcNAc(b1-2)[GlcNAc(b1-6)]Man(a1-6)]Man(b1-4)GlcNAc(b1-4)[Fuc(a1-6)]GlcNAc
# Outline: as §1
# [25] = molecular target: GlcNAc(b1-2)[GlcNAc(b1-6)]Man(a1-6)[GlcNAc(b1-2)Man(a1-3)]Man(b1-4)GlcNAc(b1-4)GlcNAc
# Outline: as §1
# [26] = molecular target: GlcNAc(b1-2)[GlcNAc(b1-6)]Man(a1-6)[GlcNAc(b1-2)Man(a1-3)]Man(b1-4)GlcNAc(b1-4)[Fuc(a1-6)]GlcNAc
# Outline: as §1
# [27] = molecular target: GlcNAc(b1-2)[GlcNAc(b1-6)]Man(a1-6)[GlcNAc(b1-2)Man(a1-3)][GlcNAc(b1-4)]Man(b1-4)GlcNAc(b1-4)GlcNAc
# Outline: as §1
# GlcNAc(b1-3)Gal = molecular target: GlcNAc(b1-3)Gal
# Outline: as §1
binder,measurement,setting,value
Morniga (Morus nigra) (protein) MAGTSTNTQTTGTSQTVEVGLWGGPGGNAWDDGSYTGIREINLSHGDAIGAFSVIYDLNGQPFTGPTHPGNEPSFKTVKITLDFPNEFLVSVSGYTGVLPRLATGKDVIRSLTFKTNKKTYGPYGKEEGTPFSLPIENGLIVGFKGRSGFVVDAIGVHLS,glycan array binding signal (z-score),[1],-0.345
same,glycan array binding signal (z-score),GalNAc(b1-3)Gal,-0.329
same,glycan array binding signal (z-score),[2],-0.321
same,glycan array binding signal (z-score),[3],-0.342
same,glycan array binding signal (z-score),[4],-0.334
same,glycan array binding signal (z-score),GalNAc(b1-3)GalNAc,-0.327
same,glycan array binding signal (z-score),GalNAc(b1-4)Gal(b1-4)Glc,-0.334
same,glycan array binding signal (z-score),GalNAc(b1-4)GlcNAc,-0.327
same,glycan array binding signal (z-score),[5],-0.138
same,glycan array binding signal (z-score),GalNAc(b1-4)GlcNAc6S,-0.341
same,glycan array binding signal (z-score),GalNAc(b1-6)GalNAc,-0.336
same,glycan array binding signal (z-score),GalNAc3S(b1-4)GlcNAc,-0.338
same,glycan array binding signal (z-score),GalNAc3S(b1-4)GlcNAc3S,-0.321
same,glycan array binding signal (z-score),GalNAc4S6S(b1-4)GlcNAc,-0.338
same,glycan array binding signal (z-score),GalNAc6S(b1-4)GlcNAc,-0.333
same,glycan array binding signal (z-score),Glc(a1-4)Glc,-0.339
same,glycan array binding signal (z-score),[6],-0.335
same,glycan array binding signal (z-score),Glc(a1-6)Glc(a1-6)Glc,-0.329
same,glycan array binding signal (z-score),[7],-0.337
same,glycan array binding signal (z-score),Glc(b1-4)Glc,-0.335
same,glycan array binding signal (z-score),Glc(b1-6)Glc,-0.332
same,glycan array binding signal (z-score),GlcA(b1-3)Gal,-0.333
same,glycan array binding signal (z-score),GlcA(b1-3)GlcNAc,-0.318
same,glycan array binding signal (z-score),GlcA(b1-6)Gal,-0.337
same,glycan array binding signal (z-score),[8],-0.324
same,glycan array binding signal (z-score),[9],-0.337
same,glycan array binding signal (z-score),[10],-0.314
same,glycan array binding signal (z-score),[11],-0.296
same,glycan array binding signal (z-score),[12],-0.334
same,glycan array binding signal (z-score),[13],-0.257
same,glycan array binding signal (z-score),[14],-0.327
same,glycan array binding signal (z-score),[15],0.158
same,glycan array binding signal (z-score),[16],-0.202
same,glycan array binding signal (z-score),[17],-0.33
same,glycan array binding signal (z-score),[18],3.52
same,glycan array binding signal (z-score),[19],0.79
same,glycan array binding signal (z-score),[20],1.43
same,glycan array binding signal (z-score),[21],-0.198
same,glycan array binding signal (z-score),[22],-0.329
same,glycan array binding signal (z-score),[23],-0.331
same,glycan array binding signal (z-score),[24],-0.336
same,glycan array binding signal (z-score),[25],2.48
same,glycan array binding signal (z-score),[26],1.94
same,glycan array binding signal (z-score),[27],1.82
same,glycan array binding signal (z-score),GlcNAc(b1-3)Gal,-0.34
